# Laboratory results reported in the supplement of paper PMC12217912.
# Some of the results follow. Sequences were assembled here from the parent chain. Values near 0.05 are background.
# B1: TEV protease; numbered along this chain (parent)
# chain: MGESLFKGPRDYNPISSSICHLTNESDGHTTSLYGIGFGPFIITNKHLFRRNNGTLVVQSLHGVFKVKDTTTLQQHLVDGRDMIIIRMPKDFPPFPQKLKFREPQREERICLVTTNFQTKSMSSMVSDTSCTFPSGDGIFWKHWIQTKDGQCGSPLVSTRDGFIVGIHSASNFTNTNNYFTSVPKNFMELLTNQEAQQWVSGWRLNADSVLWGGHKVFMVKPEEPFQPVKEATQL
# Variants of: B1
# Test: raw area under fraction-flipped curve 0-4 h after induction (AUC4h, not background-subtracted), DNA-recorder readout of cleavage of the substrate (dimensionless); higher = more cleavage of the substrate by the protease variant
# Settings: temperature: 34 °C; time window: 0-4 h after rhamnose induction
# Method: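 In vivo DNA recorder in E. coli TOP10(DE3) ΔrhaA at 34 °C. Each TEVp single-site mutant (parent TEVp 0) is paired with a single-site variant of the 7-mer TEVs (canonical ENLYFQ|S). The substrate sits between flexible linkers in a Bxb1-sfGFP-TEVs-SsrA fusion, so cleavage stabilises Bxb1 and speeds flipping of a recombination array, read by NGS. The value is the raw area under the fraction-flipped curve over 0-4 h after rhamnose induction (AUC4h), with ≥20 reads per time point. It is not background-subtracted; inactive controls average about 0.047.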
# 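Also: Bxb1 expression induced with 0.2% (w/v) L-rhamnose at OD600 near 0.5, cultures sampled hourly, flipped fraction per protease–substrate barcode pair counted by paired-end Illumina sequencing.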
variant,measurement,value
Q105D,area with substrate ENLYAQS,0.0583
same,area with substrate ENLYDQS,0.0609
same,area with substrate ENLYEQS,0.0563
same,area with substrate ENLYHQS,0.0702
same,area with substrate ENLYIQS,0.14
same,area with substrate ENLYKQS,0.0648
same,area with substrate ENLYLQS,0.0868
same,area with substrate ENLYMQS,0.132
same,area with substrate ENLYNQS,0.0687
same,area with substrate ENLYPQS,0.0684
same,area with substrate ENLYQQS,0.082
same,area with substrate ENLYRQS,0.0467
same,area with substrate ENLYSQS,0.0938
same,area with substrate ENLYWQS,0.0745
same,area with substrate ENLYYQS,0.0623
H21C,area with substrate ENLYAQS,0.0854
same,area with substrate ENLYCQS,0.0945
same,area with substrate ENLYDQS,0.0625
same,area with substrate ENLYGQS,0.0745
same,area with substrate ENLYHQS,0.0608
same,area with substrate ENLYIQS,0.101
same,area with substrate ENLYKQS,0.0687
same,area with substrate ENLYLQS,0.087
same,area with substrate ENLYMQS,0.0634
same,area with substrate ENLYNQS,0.0661
same,area with substrate ENLYPQS,0.0663
same,area with substrate ENLYQQS,0.0576
same,area with substrate ENLYSQS,0.0935
same,area with substrate ENLYVQS,0.0722
same,area with substrate ENLYWQS,0.0813
same,area with substrate ENLYYQS,0.0588
D161W,area with substrate ENLYAQS,0.0519
same,area with substrate ENLYCQS,0.0614
same,area with substrate ENLYDQS,0.0523
same,area with substrate ENLYEQS,0.0483
same,area with substrate ENLYGQS,0.0485
same,area with substrate ENLYHQS,0.048
same,area with substrate ENLYIQS,0.0542
same,area with substrate ENLYKQS,0.0323
same,area with substrate ENLYLQS,0.0469
same,area with substrate ENLYMQS,0.0155
same,area with substrate ENLYNQS,0.041
same,area with substrate ENLYPQS,0.0524
same,area with substrate ENLYQQS,0.0504
same,area with substrate ENLYRQS,0.035
same,area with substrate ENLYSQS,0.0528
same,area with substrate ENLYTQS,0.0488
same,area with substrate ENLYVQS,0.0425
same,area with substrate ENLYWQS,0.0592
same,area with substrate ENLYYQS,0.0538
L61H,area with substrate ENLYAQS,0.0735
same,area with substrate ENLYCQS,0.088
same,area with substrate ENLYDQS,0.0721
same,area with substrate ENLYEQS,0.0707
same,area with substrate ENLYGQS,0.0454
same,area with substrate ENLYHQS,0.0644
same,area with substrate ENLYIQS,0.125
same,area with substrate ENLYKQS,0.0586
same,area with substrate ENLYLQS,0.092
same,area with substrate ENLYNQS,0.0646
same,area with substrate ENLYPQS,0.0764
same,area with substrate ENLYQQS,0.0554
same,area with substrate ENLYRQS,0.0568
same,area with substrate ENLYTQS,0.0818
same,area with substrate ENLYVQS,0.135
same,area with substrate ENLYWQS,0.0721
K98L,area with substrate ENLYAQS,0.0557
same,area with substrate ENLYDQS,0.0537
same,area with substrate ENLYEQS,0.0801
same,area with substrate ENLYGQS,0.0778
same,area with substrate ENLYHQS,0.0705
same,area with substrate ENLYIQS,0.117
same,area with substrate ENLYKQS,0.0424
same,area with substrate ENLYMQS,0.0787
same,area with substrate ENLYNQS,0.0725
same,area with substrate ENLYQQS,0.0688
same,area with substrate ENLYRQS,0.0616
same,area with substrate ENLYSQS,0.0735
same,area with substrate ENLYWQS,0.0732
same,area with substrate ENLYYQS,0.027
G150H,area with substrate ENLYAQS,0.0662
same,area with substrate ENLYDQS,0.0499
same,area with substrate ENLYEQS,0.0722
same,area with substrate ENLYGQS,0.0623
same,area with substrate ENLYHQS,0.0629
same,area with substrate ENLYIQS,0.0609
same,area with substrate ENLYKQS,0.0567
same,area with substrate ENLYLQS,0.0538
same,area with substrate ENLYMQS,0.06
same,area with substrate ENLYNQS,0.0622
same,area with substrate ENLYPQS,0.054
same,area with substrate ENLYQQS,0.0791
same,area with substrate ENLYRQS,0.0563
same,area with substrate ENLYSQS,0.102
same,area with substrate ENLYTQS,0.0694
same,area with substrate ENLYVQS,0.0512
same,area with substrate ENLYWQS,0.0322
G150V,area with substrate ENLYAQS,0.0565
same,area with substrate ENLYCQS,0.0859
same,area with substrate ENLYDQS,0.0611
same,area with substrate ENLYEQS,0.0648
same,area with substrate ENLYGQS,0.0532
same,area with substrate ENLYHQS,0.0574
same,area with substrate ENLYIQS,0.0627
same,area with substrate ENLYKQS,0.051
same,area with substrate ENLYLQS,0.0461
same,area with substrate ENLYMQS,0.0592
same,area with substrate ENLYNQS,0.0678
same,area with substrate ENLYPQS,0.0586
same,area with substrate ENLYQQS,0.0584
same,area with substrate ENLYRQS,0.0694
same,area with substrate ENLYSQS,0.0681
same,area with substrate ENLYTQS,0.0567
same,area with substrate ENLYVQS,0.0593
same,area with substrate ENLYWQS,0.0594
same,area with substrate ENLYYQS,0.0542
K142L,area with substrate ENLYAQS,0.0741
same,area with substrate ENLYDQS,0.0684
same,area with substrate ENLYEQS,0.0625
same,area with substrate ENLYGQS,0.0741
same,area with substrate ENLYHQS,0.067
same,area with substrate ENLYIQS,0.124
same,area with substrate ENLYKQS,0.0543
same,area with substrate ENLYMQS,0.0834
same,area with substrate ENLYNQS,0.0691
same,area with substrate ENLYPQS,0.0708
same,area with substrate ENLYRQS,0.0481
same,area with substrate ENLYVQS,0.121
same,area with substrate ENLYWQS,0.102
same,area with substrate ENLYYQS,0.0755
N52C,area with substrate ENLYAQS,0.0667
same,area with substrate ENLYCQS,0.0615
same,area with substrate ENLYDQS,0.0603
same,area with substrate ENLYEQS,0.0593
same,area with substrate ENLYGQS,0.0632
same,area with substrate ENLYHQS,0.0663
same,area with substrate ENLYIQS,0.0574
same,area with substrate ENLYKQS,0.0534
same,area with substrate ENLYLQS,0.0564
same,area with substrate ENLYMQS,0.0635
same,area with substrate ENLYNQS,0.0741
same,area with substrate ENLYPQS,0.0706
same,area with substrate ENLYQQS,0.0505
same,area with substrate ENLYRQS,0.0571
same,area with substrate ENLYSQS,0.0541
same,area with substrate ENLYTQS,0.0731
same,area with substrate ENLYVQS,0.0792
same,area with substrate ENLYWQS,0.049
K148E,area with substrate ENLYAQS,0.0662
same,area with substrate ENLYCQS,0.0612
same,area with substrate ENLYDQS,0.0614
same,area with substrate ENLYEQS,0.0652
same,area with substrate ENLYGQS,0.0669
same,area with substrate ENLYHQS,0.0634
same,area with substrate ENLYKQS,0.0709
same,area with substrate ENLYLQS,0.0749
same,area with substrate ENLYMQS,0.0505
same,area with substrate ENLYNQS,0.0777
same,area with substrate ENLYPQS,0.0657
same,area with substrate ENLYQQS,0.0703
same,area with substrate ENLYRQS,0.0681
same,area with substrate ENLYSQS,0.077
same,area with substrate ENLYTQS,0.078
same,area with substrate ENLYVQS,0.0778
same,area with substrate ENLYWQS,0.0667
same,area with substrate ENLYYQS,0.0581
V157D,area with substrate ENLYAQS,0.0484
same,area with substrate ENLYDQS,0.0611
same,area with substrate ENLYEQS,0.0594
same,area with substrate ENLYGQS,0.0422
same,area with substrate ENLYHQS,0.055
same,area with substrate ENLYIQS,0.0396
same,area with substrate ENLYKQS,0.0232
same,area with substrate ENLYLQS,0.0365
same,area with substrate ENLYMQS,0.0499
same,area with substrate ENLYNQS,0.0433
same,area with substrate ENLYPQS,0.0529
same,area with substrate ENLYQQS,0.0236
same,area with substrate ENLYRQS,0.0459
same,area with substrate ENLYVQS,0.0368
same,area with substrate ENLYYQS,0.0434
